Test results reported in PMC12136788.
This is one part of the list.

B1: chr18:33744517:33744518:+_ENSG00000134759_ENST00000351393|hu_hu|FALSE|FALSE (ssRNA)
RNA: GGGAGUUCUACAGUCCGACGAUCUAAGAACUUCUCAUUAGGUGAGAAGGCCAUCUGCGUGACUGUCAAACUGUGGAAAACUAAAUUCUGCACCUGUUUCCAAGAUGUAGUGUUCCAAAGAAUGAUAGCUGCAUGCUCUUUCUUCAACAGAGGAUUGAGCAUCA
B2: chr9:87430539:87430540:+_ENSG00000148053_ENST00000359847|hu_mus|FALSE|FALSE (ssRNA)
RNA: GGGAGUUCUACAGUCCGACGAUCGAAAUGGAUGAAUUCAGCAAGUACAUUUAUAGUCUAGCCACACUGUUAAAACAGUACUUAAAAGUAAAAUCUUUUUUAAAAAAAGAGAUGCAUUGUUUACAGGAAAUGUGAAAAAAGAGACAACAGAGGAUUGAGCAUCA
B3: chr22:42024162:42024163:+_ENSG00000196419_ENST00000405878|hu_mus|FALSE|FALSE (ssRNA)
RNA: GGGAGUUCUACAGUCCGACGAUCUUCAUCUUCACCCUGAGAUUCGAACAUAGCCCUGGAGGCAUCAACCAGAAAAAUCAAGCUAUCUCUUCCUGAAUAUUUAUAUUCUCCACCUGUGUCGGGGCUCUCCUCCUCCUCUUCCUCCAACAGAGGAUUGAGCAUCA
B4: chr11:80196919:80196920:+_ENSMUSG00000017421_ENSMUST00000017567|mus_mus|FALSE|FALSE (ssRNA)
RNA: GGGAGUUCUACAGUCCGACGAUCUUCUUCUUCUUGCGACCCAUAACUGCGCCCUACAGAACAGGCAGAAUAGAGGCGGAAAGAAGCUGGAAAAAACAAAAAACAAAAAACCCAAGAGACUCGCAGAGUUCUCCACACCAACCGCAACAGAGGAUUGAGCAUCA
B5: chr11:22646265:22646266:-_ENSG00000183161_ENST00000327470|hu_hu|motif|central (ssRNA)
RNA: GGGAGUUCUACAGUCCGACGAUCCAGCAUUGCCUAUACAGAACUGAGGCCUGCGCUGAGACCCAAAACUUGUCUUUUCCGGAAUGCACCACUACGAAGAGCUAAUAAGAGGUCUGUCCAGAUGCUAAGACCAGGUACUUCAAACAACAGAGGAUUGAGCAUCA
B6: chr4:95690885:95690886:+_ENSMUSG00000028572_ENSMUST00000156910|mus_mus|mus_mus_mus_hu_False|68_108 (ssRNA)
RNA: GGGAGUUCUACAGUCCGACGAUCUUUAUUUUUAGAAAAAUACCAUGCUAAAAUAUUUUCAAAGGCUAGUCUUAUUUUACCAGAAGUCACAGGCAAGCAGACACUACAAGAAUAUAUGAAAAUGAAACUCAACAAUAUAACUGUCAACAGAGGAUUGAGCAUCA
B7: chr17:5391764:5391765:+_ENSG00000167842_ENST00000381165|hu_hu|FALSE|FALSE (ssRNA)
RNA: GGGAGUUCUACAGUCCGACGAUCUGAGCUUCAAUGACCUAUAGCUCCACCUUUUAGCCACCUGGCUCUUGAUAUUUGUAACUACUCUUCCAAACUGCUUCUACUUUUUGACUACUGCCUCCUACACAAUUCUUCCAAUUCUUACAACAGAGGAUUGAGCAUCA
B8: chr7:151048522:151048523:+_ENSG00000013374_ENST00000566856|hu_mus|hu_hu_hu_mus_True|38_38 (ssRNA)
RNA: GGGAGUUCUACAGUCCGACGAUCCUGUUUCUUAUUUAUUACGAUCUUGAUGUAAUUUUCUUGAAAUCCGAAAGUUUCAGCUAUUUGACACCUCAGGUCUCUGCCAGUGACAUGCAAGCGGGUCUCCAACAAGCUUUUCUUAUCCAACAGAGGAUUGAGCAUCA
B9: chr1:39494564:39494565:+_ENSG00000168653_ENST00000372967|hu_hu|hu_hu_hu_mus_True|28_58 (ssRNA)
RNA: GGGAGUUCUACAGUCCGACGAUCAUGCAUUCGCCUCAUCGUUUUGUACCGAAGCAAGCACUCUUCGAAGUCAUCGAAUUCUAUCUUGCACUCCUUUUUCGCCCGGGUAUAACCGAUCCCGUGUGCACACUCUAUCCACUCUUUCAACAGAGGAUUGAGCAUCA
B10: chr3:9412954:9412955:+_ENSG00000134077_ENST00000452837|hu_mus|hu_hu_hu_mus_False|68_108 (ssRNA)
RNA: GGGAGUUCUACAGUCCGACGAUCGGUUGAUACAUCCUCUUUGAUGGCUGGAUUUUCAUAAUAGUCCAAGAUAUGAGAAUCUGAAGUGCUGCUGGCAUGCUUUUUCUUACCAUCUUUCUCAUCUGCUUUGUCUCCUUGUCCACACAACAGAGGAUUGAGCAUCA
B11: chr5:95130247:95130248:+_ENSG00000164292_ENST00000379982|hu_hu|FALSE|FALSE (ssRNA)
RNA: GGGAGUUCUACAGUCCGACGAUCGGUUUGUGAGUUUCUGAUAUAAUUAUUUCUCUAUACAUGUGAUAUGAAAGAAAGAAACUAUCAGUCUGUCCUCUAUCCCAGUCCAUUUUCCCUCUAUGUAACAAGUCUUUGACUUACAUCCAACAGAGGAUUGAGCAUCA
B12: chr2:157383019:157383020:-_ENSMUSG00000067787_ENSMUST00000109528|mus_mus|FALSE|FALSE (ssRNA)
RNA: GGGAGUUCUACAGUCCGACGAUCGGCAGGAGCCCAGAUACCCAGGCCAAAGAGCAAUGUCUCCCCAUCGCUUCUUUCUUAAAAAUGAGGCAGAGGAAAUACUGGAGGUCUGCAGACAACGAGCAGUUGAGACAUGAUUCCGUCCAACAGAGGAUUGAGCAUCA
B13: chr5:31194218:31194219:+_ENSMUSG00000029165_ENSMUST00000031057|mus_mus|motif|central (ssRNA)
RNA: GGGAGUUCUACAGUCCGACGAUCUAGAUCUACACGAAGUCCAUCCAGAGAAUAGCAGAGAAGCUCUCGGUGGUAAUAAAUACGGUCCAGAGGACUGCUAUGGGUAGAGUAAUUCUCUGAAAAGCGCUGGUCUAGCUGGCUCAGCAACAGAGGAUUGAGCAUCA
B14: 71541968_71542166_3580_CDS_ENSMUSG00000053470_ENSMUST00000065509|mouse|control|control (ssRNA)
RNA: GGGAGUUCUACAGUCCGACGAUCUUGGAUGGUUCUAAGGACUUCUUCUUCUUGUUCACACUGUCCUUUGGGAAUUCCCACAUAAACCAUGACAUUGGCUGCAUCAGAUACAUCUAAGUGAAGAUUUGUGGUCCCAUAUUUCCGCAACAGAGGAUUGAGCAUCA
B15: 110459826_110461364_3090_3pUTR_ENSG00000134987_ENST00000506538|human|control|control (ssRNA)
RNA: GGGAGUUCUACAGUCCGACGAUCCAGCUCUGUUUCAAUUCCUGAUGGGCCUGAUUCUUUCAGAAGGUUGAGAGCAGUGUCAUACUUAUUAUUUACCAGUCCUUCUUCAAGUUUCAAGCAGAAAUCUGAUUUUUGAGCCAAAACCAACAGAGGAUUGAGCAUCA
B16: chr16:46836887:46836888:-_ENSG00000155330_ENST00000285697|hu_mus|FALSE|FALSE (ssRNA)
RNA: GGGAGUUCUACAGUCCGACGAUCACCAACAGAGUUUGAAGACAAAUAUCAGAGAAUAAGUCUUUGAUUGAUAAUUUUUCUAUUUAUUUCUGCCAAGGCAACUGAAAACACGAAAGCCUUCUCAUCAGAGAGGUUAGCAUAGAUCAACAGAGGAUUGAGCAUCA
B17: chr11:87044885:87044886:-_ENSMUSG00000046442_ENSMUST00000055438|mus_mus|FALSE|FALSE (ssRNA)
RNA: GGGAGUUCUACAGUCCGACGAUCAGGACCAAUCAUCUCAACUGGUGGCAAAAAUUGGGUACUGUGAGGUUUGCUUGCUUCUAUUUGUGUGAGAUCUAGGUAGUCUGGAUCUUCCAGCACGUUGAUUUGGGGCCCUGGGCUGAGCAACAGAGGAUUGAGCAUCA
B18: chr17:13115065:13115066:+_ENSMUSG00000068039_ENSMUST00000151287|mus_mus|FALSE|FALSE (ssRNA)
RNA: GGGAGUUCUACAGUCCGACGAUCGAUACUUGCUCCAGAAGCUUUUGCAACAUGCUUCAGGUCUCGUUUUAAAACUCUCCUAACAGCCAUGGCACCAGCUUCCACAAAAUACUUGAGAUACAUAUCAUCAAUGCCACCAGUGGUCAACAGAGGAUUGAGCAUCA
B19: chr10:76910771:76910772:+_ENSG00000156671_ENST00000542569|perfect_dup|FALSE|FALSE (ssRNA)
RNA: GGGAGUUCUACAGUCCGACGAUCCAUGUCAGGCACACGCUCAUGAACAAUAACCAUAAUGAAAGACGUAAACCCAAAUACUAUAAAAACAUAUACACAACUCAGGAUGGUCUUCCAGUACUCUGGGUCCAGUCUUCGAGCAGACAACAGAGGAUUGAGCAUCA
B20: 150069407_150069527_1215_CDS_ENSG00000214022_ENST00000425389|human|control|control (ssRNA)
RNA: GGGAGUUCUACAGUCCGACGAUCCCCGGUGUGCUGCCGCUGGUGGGCCCGCAGGAAGCGCUCCAGCCGGAAGCUCCUGCCGCAGUCGUCGCAGCUGUAGAGGGAGGGGGGGGCUUCGAUCGGGUCCUGCGGGUGCUCUGGCGGCAACAGAGGAUUGAGCAUCA
B21: 109009399_109010728_3671_CDS_ENSMUSG00000053646_ENSMUST00000072093|mouse|control|control (ssRNA)
RNA: GGGAGUUCUACAGUCCGACGAUCGCUGAACUCUGAGACACCGUGUCCUCUUCCAGGCACCUCCACUGCCACAGUGCCAGUCACCUCCUCCCCGCUGGCUCCAGUGAUGCACACAAGACUACUAGAGACAUCAUACUCCCCAGCCAACAGAGGAUUGAGCAUCA
B22: 53454565_53454685_1203_3pUTR_ENSMUSG00000025024_ENSMUST00000025997|mouse|control|control (ssRNA)
RNA: GGGAGUUCUACAGUCCGACGAUCCGUUUUGCCUCCAUGUUCCAAUGAACUGUUGGAAUAUGUCAAGUGCAAAGCAUCUGAAAAUUCCAAAUUAGGACUUAGAAACGGUCUACACAACAUCAGUUCAAUGGGCCUGACGUUCAGCAACAGAGGAUUGAGCAUCA

Target: T1, UNK ZnF1-3 (human, UniProt Q9C0B0 31-174)
T1 sequence: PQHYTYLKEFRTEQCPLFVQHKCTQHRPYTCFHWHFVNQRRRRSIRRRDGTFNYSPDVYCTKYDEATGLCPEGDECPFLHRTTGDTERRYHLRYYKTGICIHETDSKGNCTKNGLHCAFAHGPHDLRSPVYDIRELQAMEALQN
Assay: nsRBNS (natural sequence RNA bind-n-seq); RBNS binding buffer (assumed for nsRBNS): 25 mM Tris pH 7.5, 150 mM KCl, 3 mM MgCl2, 0.01% Triton X-100, 500 ug/ml BSA, 20 U/ml SUPERase-In, 4 C; UNK is unkempt and MSI1 is Musashi-1; names of the RNAs are library labels; protein concentration not given here; high values mean tight binding

In order of rising binding signal:
1. B20  0.454 enrichment R
2. B22  0.465 enrichment R
3. B1  0.508 enrichment R
4. B9  0.617 enrichment R
5. B7  0.646 enrichment R
6. B11  0.649 enrichment R
7. B10  0.684 enrichment R
8. B14  0.688 enrichment R
9. B8  0.695 enrichment R
10. B15  0.966 enrichment R
11. B18  0.985 enrichment R
12. B21  1.17 enrichment R
13. B19  1.21 enrichment R
14. B12  1.24 enrichment R
15. B16  1.24 enrichment R
16. B13  1.3 enrichment R
17. B5  1.33 enrichment R
18. B3  1.35 enrichment R
19. B17  1.51 enrichment R
20. B6  1.58 enrichment R
21. B4  1.67 enrichment R
22. B2  1.68 enrichment R
